Data from paper PMC12820563.
Some of the results follow. The list includes weakly bound sequences.

Target: T1, MBP-FoxP3dN (UniProt Q99JB6)
T1 sequence: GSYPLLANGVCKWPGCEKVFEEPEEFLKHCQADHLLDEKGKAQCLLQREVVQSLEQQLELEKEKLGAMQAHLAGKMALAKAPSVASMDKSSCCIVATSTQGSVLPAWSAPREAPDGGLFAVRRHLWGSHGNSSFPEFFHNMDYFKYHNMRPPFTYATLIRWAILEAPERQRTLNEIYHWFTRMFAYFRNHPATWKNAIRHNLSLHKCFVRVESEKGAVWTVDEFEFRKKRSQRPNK
Assay: PD-seq (MBP pull-down with sequencing)
Conditions: 20 mM Tris-HCl pH 7.5, 100 mM NaCl, 1.5 mM MgCl2, 0.4 uM protein, 0.1 uM dsDNA library, 30 min, room temperature, amylose pull-down; high values mean tight binding; double strand, one strand shown

Sequence | binding signal (RPM ratio (pull-down/input))
GATGATTGTTCTCCCAGCTGATGAATTCCATCTATCGAGTAAACAAATTTTCCTAATCTTTCTGTTCAAGCGCCATCTAC | 0.555
GATGATTGTTCTCCCAGCTGATGAATTCTCCCACTCGAGTAAACAAATTTTCCTAATCTTTCTGTTCAAGCGCCATCTAC | 0.246
GATGATTGTTCTCCCAGCTGATGAATTCTGGGCTTCGAGTAAACAAATTTTCCTAATCTTTCTGTTCAAGCGCCATCTAC | 0.324
GATGATTGTTCTCCCAGCTGATGAATTAAATGCCTCGAGTAAACAAATTTTCCTAATCTTTCTGTTCAAGCGCCATCTAC | 1.19
GATGATTGTTCTCCCAGCTGATGAATTTTACATTTCGAGTAAACAAATTTTCCTAATCTTTCTGTTCAAGCGCCATCTAC | 0.435
GATGATTGTTCTCCCAGCTGATGAATTCTATCGCTCGAGTAAACAAATTTTCCTAATCTTTCTGTTCAAGCGCCATCTAC | 0.497
GATGATTGTTCTCCCAGCTGATGAATTTTCAGTGTCGAGTAAACAAATTTTCCTAATCTTTCTGTTCAAGCGCCATCTAC | 0.378
GATGATTGTTCTCCCAGCTGATGAATTGCCAGAATCGAGTAAACAAATTTTCCTAATCTTTCTGTTCAAGCGCCATCTAC | 0.291
GATGATTGTTCTCCCAGCTGATGAATTCAGGATATCGAGTAAACAAATTTTCCTAATCTTTCTGTTCAAGCGCCATCTAC | 0.322
GATGATTGTTCTCCCAGCTGATGAATTACGTTTCTCGAGTAAACAAATTTTCCTAATCTTTCTGTTCAAGCGCCATCTAC | 1.21
GATGATTGTTCTCCCAGCTGATGAATTATGATATTCGAGTAAACAAATTTTCCTAATCTTTCTGTTCAAGCGCCATCTAC | 2.74
GATGATTGTTCTCCCAGCTGATGAATTAAGCTAATCGAGTAAACAAATTTTCCTAATCTTTCTGTTCAAGCGCCATCTAC | 0.302
GATGATTGTTCTCCCAGCTGATGAATTGAGTCCATCGAGTAAACAAATTTTCCTAATCTTTCTGTTCAAGCGCCATCTAC | 0.356
GATGATTGTTCTCCCAGCTGATGAATTAGCTTGCTCGAGTAAACAAATTTTCCTAATCTTTCTGTTCAAGCGCCATCTAC | 2.54
GATGATTGTTCTCCCAGCTGATGAATTCCCGTTCTCGAGTAAACAAATTTTCCTAATCTTTCTGTTCAAGCGCCATCTAC | 0.361
GATGATTGTTCTCCCAGCTGATGAATTAACGTCGTCGAGTAAACAAATTTTCCTAATCTTTCTGTTCAAGCGCCATCTAC | 0.533
GATGATTGTTCTCCCAGCTGATGAATTATTAAATTCGAGTAAACAAATTTTCCTAATCTTTCTGTTCAAGCGCCATCTAC | 0.323
GATGATTGTTCTCCCAGCTGATGAATTTCGACAATCGAGTAAACAAATTTTCCTAATCTTTCTGTTCAAGCGCCATCTAC | 0.506
GATGATTGTTCTCCCAGCTGATGAATTAAGGACTTCGAGTAAACAAATTTTCCTAATCTTTCTGTTCAAGCGCCATCTAC | 0.412
GATGATTGTTCTCCCAGCTGATGAATTGCCCGCTTCGAGTAAACAAATTTTCCTAATCTTTCTGTTCAAGCGCCATCTAC | 0.528
GATGATTGTTCTCCCAGCTGATGAATTCTTGCTATCGAGTAAACAAATTTTCCTAATCTTTCTGTTCAAGCGCCATCTAC | 0.663

Sequence | binding signal (RPM ratio (pull-down/input))
GATGATTGTTCTCCCAGCTGATGAATTGGTGTCTTCGAGTAAACAAATTTTCCTAATCTTTCTGTTCAAGCGCCATCTAC | 1.2
GATGATTGTTCTCCCAGCTGATGAATTTACATTATCGAGTAAACAAATTTTCCTAATCTTTCTGTTCAAGCGCCATCTAC | 0.87
GATGATTGTTCTCCCAGCTGATGAATTGCACCGCTCGAGTAAACAAATTTTCCTAATCTTTCTGTTCAAGCGCCATCTAC | 0.729
GATGATTGTTCTCCCAGCTGATGAATTGGTCGGCTCGAGTAAACAAATTTTCCTAATCTTTCTGTTCAAGCGCCATCTAC | 0.281
GATGATTGTTCTCCCAGCTGATGAATTCCAGCCATCGAGTAAACAAATTTTCCTAATCTTTCTGTTCAAGCGCCATCTAC | 0.921
GATGATTGTTCTCCCAGCTGATGAATTATCGGCCTCGAGTAAACAAATTTTCCTAATCTTTCTGTTCAAGCGCCATCTAC | 0.423
GATGATTGTTCTCCCAGCTGATGAATTGGAGGCCTCGAGTAAACAAATTTTCCTAATCTTTCTGTTCAAGCGCCATCTAC | 0.681
GATGATTGTTCTCCCAGCTGATGAATTACCTATTTCGAGTAAACAAATTTTCCTAATCTTTCTGTTCAAGCGCCATCTAC | 0.405
GATGATTGTTCTCCCAGCTGATGAATTTCGAAAATCGAGTAAACAAATTTTCCTAATCTTTCTGTTCAAGCGCCATCTAC | 0.155
GATGATTGTTCTCCCAGCTGATGAATTTGGTAGCTCGAGTAAACAAATTTTCCTAATCTTTCTGTTCAAGCGCCATCTAC | 1.1
GATGATTGTTCTCCCAGCTGATGAATTCGTTGCTTCGAGTAAACAAATTTTCCTAATCTTTCTGTTCAAGCGCCATCTAC | 2.09
GATGATTGTTCTCCCAGCTGATGAATTGTACGCATCGAGTAAACAAATTTTCCTAATCTTTCTGTTCAAGCGCCATCTAC | 1.14
GATGATTGTTCTCCCAGCTGATGAATTCGACCATTCGAGTAAACAAATTTTCCTAATCTTTCTGTTCAAGCGCCATCTAC | 0.428
GATGATTGTTCTCCCAGCTGATGAATTGAGTTTGTCGAGTAAACAAATTTTCCTAATCTTTCTGTTCAAGCGCCATCTAC | 3.48
GATGATTGTTCTCCCAGCTGATGAATTATATAAGTCGAGTAAACAAATTTTCCTAATCTTTCTGTTCAAGCGCCATCTAC | 0.369
GATGATTGTTCTCCCAGCTGATGAATTATCTATCTCGAGTAAACAAATTTTCCTAATCTTTCTGTTCAAGCGCCATCTAC | 0.385
GATGATTGTTCTCCCAGCTGATGAATTTAAGAGCTCGAGTAAACAAATTTTCCTAATCTTTCTGTTCAAGCGCCATCTAC | 0.197
GATGATTGTTCTCCCAGCTGATGAATTGAGCATGTCGAGTAAACAAATTTTCCTAATCTTTCTGTTCAAGCGCCATCTAC | 4.46
GATGATTGTTCTCCCAGCTGATGAATTGGAATTGTCGAGTAAACAAATTTTCCTAATCTTTCTGTTCAAGCGCCATCTAC | 0.647
GATGATTGTTCTCCCAGCTGATGAATTGTTAGAATCGAGTAAACAAATTTTCCTAATCTTTCTGTTCAAGCGCCATCTAC | 0.409
GATGATTGTTCTCCCAGCTGATGAATTCGCAGAGTCGAGTAAACAAATTTTCCTAATCTTTCTGTTCAAGCGCCATCTAC | 0.25

Sequence | binding signal (RPM ratio (pull-down/input))
GATGATTGTTCTCCCAGCTGATGAATTGTGTACTTCGAGTAAACAAATTTTCCTAATCTTTCTGTTCAAGCGCCATCTAC | 3.76
GATGATTGTTCTCCCAGCTGATGAATTTAGGCATTCGAGTAAACAAATTTTCCTAATCTTTCTGTTCAAGCGCCATCTAC | 5.38
GATGATTGTTCTCCCAGCTGATGAATTGATGAAGTCGAGTAAACAAATTTTCCTAATCTTTCTGTTCAAGCGCCATCTAC | 0.277
GATGATTGTTCTCCCAGCTGATGAATTCCGTCATTCGAGTAAACAAATTTTCCTAATCTTTCTGTTCAAGCGCCATCTAC | 1.64
GATGATTGTTCTCCCAGCTGATGAATTACCCTTGTCGAGTAAACAAATTTTCCTAATCTTTCTGTTCAAGCGCCATCTAC | 0.319
GATGATTGTTCTCCCAGCTGATGAATTGGGTGCGTCGAGTAAACAAATTTTCCTAATCTTTCTGTTCAAGCGCCATCTAC | 0.81
GATGATTGTTCTCCCAGCTGATGAATTTCGTCTCTCGAGTAAACAAATTTTCCTAATCTTTCTGTTCAAGCGCCATCTAC | 1.02
GATGATTGTTCTCCCAGCTGATGAATTCAGGACCTCGAGTAAACAAATTTTCCTAATCTTTCTGTTCAAGCGCCATCTAC | 0.26
GATGATTGTTCTCCCAGCTGATGAATTTATACAATCGAGTAAACAAATTTTCCTAATCTTTCTGTTCAAGCGCCATCTAC | 1.15
GATGATTGTTCTCCCAGCTGATGAATTCGAAAGGTCGAGTAAACAAATTTTCCTAATCTTTCTGTTCAAGCGCCATCTAC | 0.219
GATGATTGTTCTCCCAGCTGATGAATTAATGGATTCGAGTAAACAAATTTTCCTAATCTTTCTGTTCAAGCGCCATCTAC | 0.351
GATGATTGTTCTCCCAGCTGATGAATTCTACTGATCGAGTAAACAAATTTTCCTAATCTTTCTGTTCAAGCGCCATCTAC | 0.389
GATGATTGTTCTCCCAGCTGATGAATTATGCCTTTCGAGTAAACAAATTTTCCTAATCTTTCTGTTCAAGCGCCATCTAC | 5.34
GATGATTGTTCTCCCAGCTGATGAATTTCTGTCTTCGAGTAAACAAATTTTCCTAATCTTTCTGTTCAAGCGCCATCTAC | 0.368
GATGATTGTTCTCCCAGCTGATGAATTAGGGAGATCGAGTAAACAAATTTTCCTAATCTTTCTGTTCAAGCGCCATCTAC | 0.213
GATGATTGTTCTCCCAGCTGATGAATTATACTCATCGAGTAAACAAATTTTCCTAATCTTTCTGTTCAAGCGCCATCTAC | 0.569
GATGATTGTTCTCCCAGCTGATGAATTTTATAATTCGAGTAAACAAATTTTCCTAATCTTTCTGTTCAAGCGCCATCTAC | 0.576
GATGATTGTTCTCCCAGCTGATGAATTAGGCATGTCGAGTAAACAAATTTTCCTAATCTTTCTGTTCAAGCGCCATCTAC | 4.56
GATGATTGTTCTCCCAGCTGATGAATTTCCCTAGTCGAGTAAACAAATTTTCCTAATCTTTCTGTTCAAGCGCCATCTAC | 0.205
GATGATTGTTCTCCCAGCTGATGAATTGCATTTATCGAGTAAACAAATTTTCCTAATCTTTCTGTTCAAGCGCCATCTAC | 4.07
GATGATTGTTCTCCCAGCTGATGAATTGCCCAGATCGAGTAAACAAATTTTCCTAATCTTTCTGTTCAAGCGCCATCTAC | 0.287
